Data as given in the supplement of paper PMC3334620.
Whole data set: some 33,000 sequences, median “E-score (-0.5 to 0.5)” near -0.036, cut for the highest 2% near 0.37. Some of the results follow.

What follows are sequences tested against T1, Yer064c (UniProt P40041) (assay: PBM E-score (8-mer binding enrichment) (E-score (-0.5 to 0.5)); higher = stronger / more preferred TF binding; most listed sequences are background and not binding sites). Conditions: protein concentration: 200 nM; construct: GST-full length.
T1 sequence: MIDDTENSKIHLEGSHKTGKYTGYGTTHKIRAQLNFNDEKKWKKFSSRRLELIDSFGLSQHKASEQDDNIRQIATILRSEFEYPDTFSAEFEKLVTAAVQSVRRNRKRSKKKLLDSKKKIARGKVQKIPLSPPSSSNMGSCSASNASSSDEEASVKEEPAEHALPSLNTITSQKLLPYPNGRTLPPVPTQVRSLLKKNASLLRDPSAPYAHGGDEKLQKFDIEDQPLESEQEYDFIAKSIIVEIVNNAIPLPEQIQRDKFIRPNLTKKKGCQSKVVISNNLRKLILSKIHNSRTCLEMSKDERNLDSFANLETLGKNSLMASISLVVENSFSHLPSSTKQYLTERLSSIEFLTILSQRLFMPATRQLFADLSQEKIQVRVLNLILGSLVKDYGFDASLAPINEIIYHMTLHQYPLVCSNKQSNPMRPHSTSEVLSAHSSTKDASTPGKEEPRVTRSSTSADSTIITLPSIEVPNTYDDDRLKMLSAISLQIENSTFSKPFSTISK
How it was run: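 Universal all-10-mer Agilent arrays, fresh or stripped once, were converted to double-stranded form by primer extension. GST-tagged yeast transcription factors from PURExpress in vitro transcription/translation, full-length or DNA-binding domain only, were applied at about 100-200 nM and detected with fluorescent anti-GST. After masliner normalisation, the Universal PBM Analysis Suite scored each ungapped eight-base word together with its reverse complement by E-score.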

| Sequence | PBM E-score |
| --- | --- |
| GAAGTGGC | -0.115 |
| CGTTTGTA | -0.0911 |
| GCCGTTTA | -0.0806 |
| CCTACGGA | -0.115 |
| CCGACATC | -0.262 |
| AGGCGCTG | -0.102 |
| ATGTTCAC | -0.136 |
| GAGAATCA | 0.392 |
| TATCCGCA | 0.00068 |
| GATGTCAA | 0.014 |
| CATGGGGA | -0.0954 |
| ATTCCAGA | 0.0393 |
| AGTGCGGG | -0.196 |
| CATGCTCC | -0.197 |
| TGGAAAAA | -0.074 |
| CGACCAAG | -0.148 |
| AGTACTAG | 0.147 |
| AGAACAGA | -0.0227 |
| CTTTTGAC | 0.161 |
| CGATAAAA | -0.0985 |
| ACCCTTAC | -0.0967 |
| CCTCAGGC | -0.147 |
| AACCTTGC | -0.0882 |
| CTTTCAAC | -0.0721 |

| Sequence | PBM E-score |
| --- | --- |
| CGGACTCC | 0.191 |
| AGGGTTAG | -0.0462 |
| ACATATGA | 0.233 |
| GTCGTCCA | 0.108 |
| AAGACCGG | -0.265 |
| CGGTGAAC | -0.0471 |
| CGATATAG | -0.0616 |
| CACGTCTG | 0.0273 |
| CAGCTAGG | -0.22 |
| ACGTCACA | 0.00414 |
| GCGGAACA | 0.0307 |
| GGGCGACC | -0.298 |
| AAATACAC | -0.0541 |
| CAACTGCA | -0.0203 |
| AGCGCCCC | -0.313 |
| CTTTGTTA | 0.0755 |
| CACGCTCG | -0.00798 |
| AGTGCAAA | 0.11 |
| ACCCGTCA | -0.0767 |
| CGGGACCC | -0.259 |
| ATTATGAC | 0.277 |
| CTTGAGGA | -0.0149 |
| AATGGGAC | -0.0785 |
| CACGATCG | 0.12 |

| Sequence | PBM E-score |
| --- | --- |
| CAGGTGCA | -0.139 |
| GTGAGCAC | 0.0206 |
| CAAATCGG | -0.0978 |
| CAACATAA | 0.0238 |
| AACCCTGG | -0.0176 |
| AGTGGGTG | 0.152 |
| CTTTTTGA | 0.195 |
| CCTTGACA | -0.237 |
| CGCTGTTA | -0.152 |
| AATGTGTG | 0.0939 |
| ACTTAGCC | 0.141 |
| ACATATCT | 0.0318 |
| GTGTCGAA | -0.00343 |
| CCACCACA | -0.168 |
| CCGACTTA | 0.263 |
| AACAAAGG | -0.0406 |
| AGCAGGAG | -0.0429 |
| AGAGTCAG | 0.457 |
| ATTGTGTA | 0.0623 |
| AACCTAAA | 0.0669 |
| AGATGATA | 0.0471 |
| CACACTTC | -0.07 |
| CCCGTCAA | -0.171 |
| CATTGCCG | -0.131 |

| Sequence | PBM E-score |
| --- | --- |
| AGTAGACA | 0.1 |
| GATGAATA | 0.176 |
| GAAGCCAC | -0.00765 |
| AAACAGCT | 0.00527 |
| GAAGCAGA | -0.0206 |
| AGGTACGA | 0.00497 |
| AATGAATC | 0.39 |
| CATGAGTC | 0.481 |
| TAGAGCCA | -0.0413 |
| CACTTCTG | -0.157 |
| AGCTGCTA | -0.165 |
| CACTAATC | 0.191 |
| GCTACGAC | 0.13 |
| CATTTTTA | -0.173 |
| CAGCGCGC | -0.264 |
| AACGACTC | 0.427 |
| ACCGGCAG | -0.243 |
| CTGGAAAC | -0.0299 |
| GCTACACA | 0.161 |
| CTACATTC | -0.22 |
| GCCCGTCA | -0.35 |
| GGAAAACC | -0.286 |
